Experimental data reported in US20230042694A1 (SUZHOU CUREMED BIOMEDICAL TECHNOLOGY, published 2023).

Target: KRAS protein (UniProt P01116)
Assay: cell-based or functional assay

- Percentage of KRAS protein level (Western Blot, H358 cells, 6 hours after transfection; protein level of EV29-K19-VHKC as control): 26.8%
B1: recombinant polypeptide K19-VHK (N-K19 (first polypeptide)-linker peptide-VHL (second polypeptide)-C) (other)
chain: [sequence of about 200 residues not given]LEGGGGSAAAMDLGKKLLEAARAGQDDEVRILMANGADVNASDRWGWTPLHLAAWWGHLEIVEVLLKRGADVSAADLHGQSPLHLAAMVGHLEIVEVLLKYGADVNAKDTMGATPLHLAARSGHLEIVEELLKNGADMNAQDKFGKTTFDISTDNGNEDLAEILQKLVDGGSDYKDDDDK
